# Measurements published in PubChem BioAssay AID504832 (National Center for Advancing Translational Sciences (NCATS), 2011).
# Among all 310,000 compounds or so, about 18,000 (5.8%) were called active. The shares of active, inactive and inconclusive entries below differ from those in the screen. Calls follow the shape of the dose curve; as a rule, active = well fitted inhibition curve with a large enough effect; inconclusive = small, poorly fitted or top-dose-only effect, or another doubt; inactive = no such curve, though single readings can be large or run the other way. Potencies of inconclusive entries are left out as doubtful fits.
# Assay: Primary qHTS for delayed death inhibitors of the malarial parasite plastid, 48 hour incubation
# Settings: P. falciparum luciferase growth in erythrocytes; series mostly up to 28.7 µM
# Summary of the method: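 Luciferase-expressing parasites in RBCs, 2% Hct / 0.1% parasitemia final; RPMI 1640 + 0.5% Albumax; 37 C, 5% CO2, one generation; luminescence read-out, lower signal = inhibition.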
# Potency is read from the fitted curve at half-maximal effect; tags tell the direction and shape of the fitted curve.
row,Structure (SMILES),Potency
1,CCOC(=O)c1ccccc1NC(=O)COC(=O)c1cc([N+](=O)[O-])ccc1N1CCOCC1,"inconclusive [inhibitor, single point]"
2,CN(C)c1ccc(/C=C/c2nc3ccccc3c(=O)n2CCO)cc1,"inconclusive [inhibitor, single point]"
3,CC(C)(C)c1cc(NC(=O)c2ccco2)no1,inactive
4,Brc1ccc(CSc2nnc(-c3ccccn3)n2Cc2ccco2)cc1,"inconclusive [inhibitor, single point]"
5,CCc1ccc(N2CC(O)=C(c3nc4ccccc4c(=O)[nH]3)C2=N)cc1,"inconclusive [inhibitor, partial curve]"
6,CCCCc1nc(SCCOC)c2c(=O)n(C)c(=O)n(C)c2n1,"inconclusive [inhibitor, single point]"
7,Cc1cc(OCC(=O)N2CCOCC2)cc2oc(=O)c3ccccc3c12,inactive
8,N#Cc1nc(Cc2cccc3ccccc23)oc1N1CCOCC1,"inconclusive [inhibitor, single point]"
9,Cc1oc(-c2ccccc2F)nc1CS(=O)(=O)CC(=O)N1CCN(Cc2ccccc2)CC1,inactive
10,COc1ccccc1-c1ccc(C(=O)O)o1,inactive
11,CCOC(=O)C1CCN(C(=O)Cn2cnc3sc(C)c(S(=O)(=O)N4CCC(C)CC4)c3c2=O)CC1,active: 4.15 µM
12,CC(OC(=O)CCc1c[nH]c2ccccc12)C(=O)c1ccccc1 (configuration not stated),inactive
13,O=C(NCc1ccccc1)c1cccc(COc2cccc(Cl)c2)c1,inactive
14,CCOCCCN1CC(C(=O)NCCc2ccccc2)CC1=O (configuration not stated),inactive
15,CCOC(=O)c1ccc(-c2ccc(/C=C(\C#N)C(=O)NCC3CCCO3)o2)cc1 (configuration not stated),inactive
16,Cc1ccc(C(=O)NC2CCCc3ccccc32)cc1[N+](=O)[O-] (configuration not stated),"inconclusive [inhibitor, single point]"
17,CCOc1ccccc1/C=C/c1onc(C)c1S(=O)(=O)N1CCC(C(=O)NC)CC1,"inconclusive [inhibitor, partial curve, poor fit]"
18,CCOc1ccc2c(c1)C(N(CCN1CCOCC1)C(=O)Nc1ccc(OC)cc1OC)CC(C)(C)O2 (configuration not stated),"inconclusive [inhibitor, partial curve, poor fit]"
19,COc1cc(/C=C/C(=O)OCC(=O)NC(=O)NC(C)C)cc(S(=O)(=O)N2CCc3ccccc32)c1OC,inactive
20,Cc1ccc(C)c(S(=O)(=O)c2c(C)cc(C)[nH]c2=O)c1,inactive
21,CCOC(=O)N1CCN(C(=O)c2cc3c(s2)-c2ccccc2OC3)CC1,inactive
22,CCOC(=O)N1CCC(NC(=O)c2cc3c(-c4cccc(OC)c4)nn(C)c3s2)CC1,active: 9.28 µM
23,Cc1ccc(OCC(=O)Nc2cccc(S(=O)(=O)NC3=NCCCCC3)c2)cc1C,"inconclusive [inhibitor, single point]"
24,CCOC(=O)C1CCCN(C(=O)Cc2c(C(=O)O)[nH]c3ccccc23)C1 (configuration not stated),"inconclusive [inhibitor, partial curve, poor fit]"

row,Structure (SMILES),Potency
1,CCOc1ccc(NC(=S)N(CCc2c(C)[nH]c3ccc(C)cc23)Cc2ccncc2)cc1,"inconclusive [inhibitor, partial curve]"
2,Cc1ccc(C)n1NC(=O)c1cccs1,"inconclusive [inhibitor, single point]"
3,Cc1cccc2cc3c(N)c(C(=O)Nc4ccc(N5CCOCC5)cc4)sc3nc12,"inconclusive [inhibitor, single point]"
4,COc1ccc(CNC(=O)c2ccc(S(=O)(=O)N3CCOCC3)cc2)cc1,inactive
5,Cc1cccc(OCCCn2c(=O)oc3ccccc32)c1,inactive
6,CCC(CC)c1nnc(NC(=O)c2c(C)nn(Cc3ccccc3Cl)c2C)s1,"inconclusive [inhibitor, single point]"
7,CCC(=O)Nc1ccc(-c2nnc(SCc3ccc(C(=O)Nc4nccs4)cc3)n2CC)cc1,active: 7.38 µM
8,COc1cc(OC)cc(C2=NC3(CCC(C)CC3)NC2=S)c1 (configuration not stated),active: 10.4 µM
9,CN(C)CCn1c(C(=O)O)cc2ccccc21,inactive
10,Cc1c(CC(=O)N2CCN(C(=O)C3COc4ccccc4O3)CC2)c(=O)oc2cc(O)c(Cl)cc12 (configuration not stated),"inconclusive [inhibitor, partial curve]"
11,Nc1nnnn1/N=C/c1cc(Cl)cc(Cl)c1O,inactive
12,CCN(CC)C(=S)SCC(=O)Nc1nc(-c2ccccc2)c(-c2ccccc2)o1,inactive
13,CC(C)(C)NC(=O)CN(C(=O)CSc1nnc(COc2ccccc2)o1)c1cccc(F)c1,"inconclusive [inhibitor, single point]"
14,CCOc1ccc(CCNC(=O)c2sc3nc4n(c(=O)c3c2C)CCC4)cc1OCC,"inconclusive [inhibitor, full curve, poor fit]"
15,Cc1ccc(C(CNS(=O)(=O)c2cc(F)ccc2F)N2CCN(C)CC2)cc1 (configuration not stated),"inconclusive [inhibitor, single point]"
16,Cc1nc2ccc(C(=O)N/N=C/c3ccccc3O)cc2[nH]1,"inconclusive [inhibitor, partial curve, poor fit]"
17,CSc1nc(SC)c2c3c(oc2n1)COC(C)(C)C3,"inconclusive [inhibitor, single point]"
18,Cc1ccc(CC(=O)N(C)CC(=O)Nc2ccc(N3CCOCC3)cc2)cc1C,"inconclusive [inhibitor, partial curve, poor fit]"
19,COc1ccccc1OCC(=O)N1CCC2(CC1)CC(=O)c1ccccc1O2,"inconclusive [inhibitor, single point]"
20,c1cc2c3c(cccc3c1)C(N1CCCCCC1)=N2,inactive
21,COc1ccc(C(NC(=O)N2CC(C)OC(C)C2)C(Cl)(Cl)Cl)cc1F (configuration not stated),active: 13.1 µM
22,Cc1cc(OC(C)C(=O)NCCCn2ccnc2)c2c(C)c(C)c(=O)oc2c1 (configuration not stated),"inconclusive [inhibitor, single point]"
23,Cc1ccc(C)c(C(=O)Cn2ncc(Cl)c(Cl)c2=O)c1,"inconclusive [inhibitor, single point]"
24,COc1ccc(-c2cc(=O)oc3c(C)c(OC(C)C(C)=O)ccc23)cc1 (configuration not stated),inactive

row,Structure (SMILES),Potency
1,CNc1oc(-c2ccc(C)cc2)nc1P(=O)(c1ccccc1)c1ccccc1,active: 0.117 µM
2,CC(Cc1ccccc1)NC(=O)/C=C/c1ccc([N+](=O)[O-])cc1 (configuration not stated),inactive
3,CCN(CC)S(=O)(=O)c1cccc(-c2nnc(SC(C)C(=O)NCCC3=CCCCC3)o2)c1 (configuration not stated),"inconclusive [inhibitor, single point]"
4,O=C1CN(/N=C/c2ccc(-c3ccc([N+](=O)[O-])cc3)o2)C(=O)N1,"inconclusive [inhibitor, single point]"
5,O=C(CC(NC(=O)c1ccccc1)c1ccccc1)Nc1cccc2ccccc12 (configuration not stated),"inconclusive [inhibitor, partial curve]"
6,Fc1ccc(-[n+]2nc(Nc3ccccc3)sc2-c2c(Cl)cccc2Cl)cc1,"inconclusive [inhibitor, full curve]"
7,O=C(COC(=O)c1ccc(O)cc1)NCCCc1ccccc1,"inconclusive [inhibitor, partial curve, poor fit]"
8,CNC(=O)C(C)N1c2cccc3cccc(c23)S1(=O)=O (configuration not stated),inactive
9,Cc1cc(C)cc(SCc2noc(C(=O)NC(C)C)c2C(=O)NC(C)C)c1,"inconclusive [inhibitor, single point]"
10,CC(C)(C)C(=O)NC(=S)NNC(=O)c1sc2ccccc2c1Cl,"inconclusive [inhibitor, single point]"
11,CCc1nnc(NC(=O)c2ccc(S(=O)(=O)N(CC)Cc3ccccc3)cc2)o1,inactive
12,Cc1ccc(/C=C/C(=O)Nc2sc(C)c(C)c2C(=O)OC(C)C)o1,inactive
13,CN(C)c1ccc(C(=O)/C=C/c2ccc(Br)cc2)cc1,inactive
14,COc1ccc(C(=O)C[n+]2ccc3c(c2)nc(-c2ccccc2)n3C)cc1,active: 2.33 µM
15,CCOc1cc(NC(=O)c2ccccn2)c(OCC)cc1NC(=O)c1ccc(C)cc1,inactive
16,O=c1cc(CO)oc(C(Nc2ccccn2)c2ccc(C(F)(F)F)cc2)c1O (configuration not stated),"inconclusive [inhibitor, full curve, poor fit]"
17,Cn1c2ccc(F)cc2c2nnc(NN)nc21,"inconclusive [inhibitor, single point]"
18,CN(c1ccc(C(=O)N/N=C/c2cccc([N+](=O)[O-])c2)cc1)S(=O)(=O)c1ccccc1,active: 6.57 µM
19,Cc1nn(S(=O)(=O)c2cccs2)c(C)c1Sc1ccc([N+](=O)[O-])cc1,"inconclusive [inhibitor, partial curve, poor fit]"
20,COc1cc(C(=O)NCCCN(C)C)ccc1OCC(=O)Nc1cccc(C(F)(F)F)c1,"inconclusive [inhibitor, single point]"
21,O=C1C=C(c2ccccc2C(F)(F)F)C[C@@H](c2ccc3c(c2)OCO3)C1,"inconclusive [inhibitor, single point]"
22,COc1ccc(-c2cc(-c3ccc(N)cc3)nc(N)c2C#N)cc1OC,"inconclusive [inhibitor, full curve]"
23,Clc1ccc(Cn2ncc3c(N4CCCC4)ncnc32)cc1,"inconclusive [inhibitor, partial curve]"
24,Cc1ccn(CC(=O)N2CCCC(N3CCN(c4cccc(Cl)c4)CC3)C2)n1 (configuration not stated),"inconclusive [inhibitor, partial curve, poor fit]"
